# Source: the RNAGym collection of RNA variant scans (doi:10.1093/nar/gkz1192)
# The source gives no read counts; variants with many changes may rest on few reads.
# B1: CPEB3 Ribozyme (parent)
# chain: UAACAGGGGGCCACAGCAGAAGCGUUCACGUCGCAGCCCCUGUCAGAUUCUGGUGAAUCUGCGAAUUCUGCUGUAUAUCUC
# Variants of: B1
# Test: self-cleavage, relative activity (ratio to wild type); higher = more cleavage; in vitro, sequencing
# How it was run: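 Relative activity compares each variant's cleaved/total read fraction with that of the unmutated ribozyme. To get these fractions, barcoded CPEB3 ribozyme libraries from rounds of error-prone PCR were transcribed with T7 RNA polymerase for 5 hours at 37°C and then given 15 min of DNase I treatment before EDTA was added. The RNAs were reverse transcribed with template switching and sequenced on Illumina, and DNA sequencing linked barcodes to variants. A minimum of 5 reads applied, and three batches were averaged.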
row,Variant,self-cleavage
1,A2G A20G G53A A56U,0.41
2,A2G A5U A28G C29G A64U,0.23
3,A2G A28U U74A C79U,0.66
4,A2G A45G U78A,0.88
5,A2G A35G U74C,1.21
6,A2G A56G A57U U60A C71U,0.04
7,A2G A5G U51A A57G A64G,0.29
8,A2G A21G A35G U43A U69A,0.58
9,A2G C11U A35U C40U A45U A64U U80C,0.04
10,A2G A35G A56G U60A U78C,0.25
11,A2G A15G G22A C32U A45G A64G U72C,0.13
12,A2G C11A U54C U74C A75U,0.39
13,A2G A47U U49C,0.15
14,A2G A28G C37A U41C U76C,0.09
15,A2G A21G G36C U41A C50G U60G,0.17
16,A2G A64U U80A,0.3
17,A2G A13U A15U C23U,0.3
18,A2G A20G U31C U54C U74C,0.33
19,A2G A18U C81U,0.56
20,A2G A13U G53C U72C G73A,0.69
21,A2G A15G U43C U54C U69A,0.12
22,A2G C11G A20G U25A A56U,0.29
23,A2G A64G U76C,0.4
24,A2G A13U C39U A45G U54G U67A,0.03

row,Variant,self-cleavage
1,A2G A45C U54C A65G U66C,0.34
2,A2G A18G C44A U54A U72C,0.08
3,A2G A13U A57G,0.24
4,A2G A13U C59U U66C U72C,0.24
5,A2G C4U C71U U80C,1.2
6,A2G A5U A18U A21G C23A U41C U74A,0.7
7,A2G A35U U43C C44U U66C,0.19
8,A2G A35G C38A U69A,0.27
9,A2G A35U U49C U60C,0.16
10,A2G C11U A13G A21U U25C A28U C37U,0.05
11,A2G A21G C34G U72A U78C,0.06
12,A2G A15G U60C,0.16
13,A2G A20G C32U U72C A77G,0.26
14,A2G A15U A20G U51C U60C,0.25
15,A2G C4U C37A U48C A64U,0.24
16,A2G A15G C44A U78C,0.23
17,A2G A20G U26C,0.56
18,A2G A5U U54C U67A,0.57
19,A2G A28C U58C,0.14
20,A2G C11A A35G,0.11
21,A2G A5U A18U U48C A64G U67C U69A,0.08
22,A2G A28G G42A U72C,0.47
23,A2G A18G C39U A56U,0.38
24,A2G A35G U41A A56U,0.16

row,Variant,self-cleavage
1,A2G A20G U41A U49A A64G,0.26
2,A2G A5U A28G,0.63
3,A2G A35U U41A,0.05
4,A2G A45G A64G A65G,0.34
5,A2G A5U U26G A57G U72C,0.57
6,A2G A13G A15C,0.49
7,A2G A13G A15G,0.11
8,A2G A5G U54C A56U U80C,0.41
9,A2G C11U C12U A56G,0.28
10,A2G A20G A35U C59U,0.05
11,A2G A18G A47G U72C,0.18
12,A2G A18U U31C A56G U60C U67C,0.02
13,A2G A56U U67A C71G,0.22
14,A2G A28G C32A U43A G63A,0.34
15,A2G A15U A47G A56G U74A,0.38
16,A2G A18U U54C G70A U72A,0.08
17,A2G A21G U69C,0.38
18,A2G A13G A21G U25C A45U U51C U76C,0.11
19,A2G A21G C23A U51C U54G G55U,0.09
20,A2G A28G U43C,0.25
21,A2G A28G A64G U67C,0.2
22,A2G A13G A28G C37G A56U C59A,0.07
23,A2G C11U C32A C34G U69C,0.09
24,A2G A18U U26A U31A,0.25

row,Variant,self-cleavage
1,A2G A13G A35G U67C,0.05
2,A2G C11G A35U U48C A56G U69A U78C,0.09
3,A2G A18G U43A,1.28
4,A2G A20C A35G C38A U41A U74C,0.27
5,A2G A47G U49C U78C,0.09
6,A2G A21G U26C A56U,0.09
7,A2G A45G U54G A64G U67C A77U,0.06
8,A2G C23G C32A C38G A57G A64C A65G,0.02
9,A2G A18U U41A A45U U54C A56U U69A,0.07
10,A2G A21G C50A,0.07
11,A2G A5U A18G A64G,0.51
12,A2G A20G U26A A28G A65G,0.37
13,A2G C11U U69A U78C,0.27
14,A2G A15G U25A G52A,0.15
15,A2G A45G U48C G55A U72C,0.37
16,A2G A45G U54C U60C,0.59
17,A2G A20G U60C A77G,0.31
18,A2G C12A A21G U31C U72A,0.03
19,A2G A56G A77G,0.54
20,A2G A21C C23A A64G U78A,0.22
21,A2G A13U A35G G63C,1.14
22,A2G C4U C71U,0.6
23,A2G A35G A56G,1.17
24,A2G A56G U78A,0.68

row,Variant,self-cleavage
1,A2G A45G U58A,0.13
2,A2G A13U U58C U60C,0.18
3,A2G A15G A20G A45G,0.51
4,A2G A13C A56C,0.42
5,A2G A45U U51C U58C U69A,0.11
6,A2G A21G G52C,0.24
7,A2G A5G U48C U72G,0.08
8,A2G A28C U41A,0.07
9,A2G A20G U51C,0.68
10,A2G A5U C34U U60A,0.1
11,A2G A15U C34G U41A U49C,0.04
12,A2G A35G A47C U48A,0.25
13,A2G A47G U54C,0.65
14,A2G A47G U54A,0.27
15,A2G A18U U41A U66C A77G,0.26
16,A2G A20U G24A U60A U78A,0.14
17,A2G A15G U49A,0.15
18,A2G A5U A18U C23U U54A A56G,0.15
19,A2G C12U A35U U78C C81U,0.36
20,A2G A18G U80C,0.56
21,A2G A20C U54C C62G C68G U80C,0.16
22,A2G A5U A18U A57G G63C A64U,0.19
23,A2G A21G C27U U41A A64G,0.07
24,A2G A20G C39A U67A,0.07

row,Variant,self-cleavage
1,A2G C11U U67C,0.07
2,A2G A5U A57G A75G,0.37
3,A2G A20G U25G U41C U69C,0.3
4,A2G C11U A56C U66C,0.11
5,A2G A21G A56C U60G,0.35
6,A2G A13G A15C C23U A35G A45G U67C,0.08
7,A2G A28G A47G,0.43
8,A2G A15G A20U A45U A57G U60C,0.08
9,A2G A18U U26A A56G,0.11
10,A2G A28G G33A A35U A47G,0.12
11,A2G A28U A35U C44A A64U C68U U80C,0.04
12,A2G A15U A45U A65G U76A,0.09
13,A2G A64G U80A,0.57
14,A2G A5U A13G,0.23
15,A2G A47G U74A U80C,1.13
16,A2G A21G A45G,0.11
17,A2G A47G U49A A57G,0.55
18,A2G A20G G36A G55A,0.2
19,A2G A28C A35U U51C A77G,0.06
20,A2G C12U U41A,0.31
21,A2G A15G C34A,0.14
22,A2G A18G U67A U69A U78C,0.29
23,A2G A35U A65G,0.25
24,A2G A20U A28U,0.28

row,Variant,self-cleavage
1,A2G A18G A21G A64G U74C,0.51
2,A2G A15G U25C A45G A56G,0.03
3,A2G A21U U54A U78C,0.1
4,A2G A28G U76A,0.21
5,A2G A18U A45U U51C U54C U58C U78C,0
6,A2G A15C U31C U41C A45U U66C,0.4
7,A2G A13U A56G U72C,0.5
8,A2G A18G A28G,0.58
9,A2G A13U U60C,0.1
10,A2G A18C G33A A45U U72C U74A,0.2
11,A2G A35G U80C,1.21
12,A2G A21U U49A U66A,0.13
13,A2G A5U C12G C40A U51A U69C,0.14
14,A2G A13U U69C A77U,0.55
15,A2G A15G U26A A35G U41C U49A U72C,0.21
16,A2G C17G A18G U31A,0.33
17,A2G A15U G22U U31A C44U U66C,0.07
18,A2G A13U A18G A64G U74C,0.29
19,A2G A28U A45G A57G,0.14
20,A2G A5U A18U U26C G46A A75U,0.24
21,A2G A20G U25C,0.78
22,A2G A15U U26C C32U,0.25
23,A2G A28G G36C U43C U49A U69C,0.07
